Measurements published in patent US20260021059A1, “THERAPEUTIC COMBINATIONS AND METHODS” (RUTGERS, THE STATE UNIVERSITY OF NEW JERSEY, priority 2022, published 2026).

System: rats
Test: Palatable food intake (binge-like eating) of a fat/sucrose mixture during 30 min exposure periods
Format: in vivo
Details: d-amphetamine alone, i.p.
Protocol: Rats were trained to consume a palatable fat mixture (90% vegetable shortening, 10% sucrose) during brief exposure periods (30 mins) that occurred twice per week. The amount of palatable food consumed during these 30 min exposure periods was measured.

C[C@H](N)Cc1ccccc1 [d-amphetamine]
dose necessary to suppress palatable food intake when administered alone: 0.75 mg/kg
